# The list shows a part of the results.
# What was measured:
# Assay in all cases: glycan array binding signal (z-score within array); higher = stronger binding
# Conditions in all cases: glycan notation: IUPAC condensed, linker removed
# [1] = target: GlcNAc(b1-4)GlcNAc(b1-4)GlcNAc(b1-4)GlcNAc(b1-4)GlcNAc(b1-4)GlcNAc
# Method in brief: (§1)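 The binding signal is a Z-score computed within each array. Data were drawn from 3228 arrays in the Consortium for Functional Glycomics database, restricted to those with a known protein sequence. Scores were averaged over arrays of the same protein sequence at different concentrations or buffers, and over linkers, and negative values can be taken as non-binding.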
# [2] = target: GlcNAc(b1-4)[GlcNAc(b1-6)]GalNAc
# Method in brief: as §1
# [3] = target: GlcNAc(b1-6)Gal(b1-4)GlcNAc
# Method in brief: as §1
# GlcNAc(b1-6)GalNAc = target: GlcNAc(b1-6)GalNAc
# Method in brief: as §1
# [4] = target: GlcNAc6S(b1-3)Gal(b1-4)GlcNAc
# Method in brief: as §1
# Kdn(a2-3)Gal(b1-3)GalNAc = target: Kdn(a2-3)Gal(b1-3)GalNAc
# Method in brief: as §1
# Kdn(a2-3)Gal(b1-3)GlcNAc = target: Kdn(a2-3)Gal(b1-3)GlcNAc
# Method in brief: as §1
# Kdn(a2-3)Gal(b1-4)Glc = target: Kdn(a2-3)Gal(b1-4)Glc
# Method in brief: as §1
# Kdn(a2-3)Gal(b1-4)GlcNAc = target: Kdn(a2-3)Gal(b1-4)GlcNAc
# Method in brief: as §1
# [5] = target: Kdn(a2-3)Gal(b1-4)[Fuc(a1-3)]GlcNAc
# Method in brief: as §1
# Kdn(a2-6)Gal(b1-4)GlcNAc = target: Kdn(a2-6)Gal(b1-4)GlcNAc
# Method in brief: as §1
# [6] = target: Man(a1-2)Man(a1-2)Man(a1-3)Man
# Method in brief: as §1
# [7] = target: Man(a1-2)Man(a1-2)Man(a1-6)[Man(a1-3)]Man
# Method in brief: as §1
# Man(a1-2)Man(a1-3)Man = target: Man(a1-2)Man(a1-3)Man
# Method in brief: as §1
# [8] = target: Man(a1-2)Man(a1-3)[Man(a1-2)Man(a1-6)]Man
# Method in brief: as §1
# [9] = target: Man(a1-2)Man(a1-3)[Man(a1-2)Man(a1-6)]Man(a1-6)[Man(a1-2)Man(a1-2)Man(a1-3)]Man
# Method in brief: as §1
# [10] = target: Man(a1-2)Man(a1-3)[Man(a1-2)Man(a1-6)]Man(a1-6)[Man(a1-2)Man(a1-2)Man(a1-3)]Man(b1-4)GlcNAc(b1-4)GlcNAc
# Method in brief: as §1
# [11] = target: Man(a1-2)Man(a1-3)[Man(a1-6)]Man(a1-6)[Man(a1-2)Man(a1-3)]Man(b1-4)GlcNAc(b1-4)GlcNAc
# Method in brief: as §1
# [12] = target: Man(a1-2)Man(a1-6)[Man(a1-3)]Man(a1-6)[Man(a1-2)Man(a1-2)Man(a1-3)]Man
# Method in brief: as §1
# [13] = target: Man(a1-2)Man(a1-6)[Man(a1-3)]Man(a1-6)[Man(a1-2)Man(a1-2)Man(a1-3)]Man(b1-4)GlcNAc(b1-4)GlcNAc
# Method in brief: as §1
# Man(a1-3)[Man(a1-6)]Man = target: Man(a1-3)[Man(a1-6)]Man
# Method in brief: as §1
# [14] = target: Man(a1-3)[Man(a1-6)]Man(a1-6)[Man(a1-2)Man(a1-3)]Man(b1-4)GlcNAc(b1-4)GlcNAc
# Method in brief: as §1
# [15] = target: Man(a1-3)[Man(a1-6)]Man(a1-6)[Man(a1-3)]Man
# Method in brief: as §1
# [16] = target: Man(a1-3)[Man(a1-6)]Man(a1-6)[Man(a1-3)]Man(b1-4)GlcNAc(b1-4)GlcNAc
# Method in brief: as §1
# [17] = target: Man(a1-3)[Man(a1-6)]Man(b1-4)GlcNAc(b1-4)GlcNAc
# Method in brief: as §1
# [18] = target: Man(a1-3)[Man(a1-6)]Man(b1-4)GlcNAc(b1-4)[Fuc(a1-6)]GlcNAc
# Method in brief: as §1
# Man(a1-6)Man = target: Man(a1-6)Man
# Method in brief: as §1
# Man(b1-4)GlcNAc = target: Man(b1-4)GlcNAc
# Method in brief: as §1
# MurNAc(b1-4)GlcNAc = target: MurNAc(b1-4)GlcNAc
# Method in brief: as §1
# Neu5Ac(a2-3)Gal = target: Neu5Ac(a2-3)Gal
# Method in brief: as §1
# [19] = target: Neu5Ac(a2-3)Gal(b1-3)GalNAc
# Method in brief: as §1
# [20] = target: Neu5Ac(a2-3)Gal(b1-3)GalNAc(b1-3)Gal(a1-4)Gal(b1-4)Glc
# Method in brief: as §1
# [21] = target: Neu5Ac(a2-3)Gal(b1-3)GalNAc(b1-4)Gal(b1-4)Glc
# Method in brief: as §1
# [22] = target: Neu5Ac(a2-3)Gal(b1-3)GalNAc(b1-4)[Neu5Ac(a2-3)]Gal(b1-4)Glc
# Method in brief: as §1
# [23] = target: Neu5Ac(a2-3)Gal(b1-3)GalNAc(b1-4)[Neu5Ac(a2-8)Neu5Ac(a2-3)]Gal(b1-4)Glc
# Method in brief: as §1
# [24] = target: Neu5Ac(a2-3)Gal(b1-3)GalNAc6S
# Method in brief: as §1
# [25] = target: Neu5Ac(a2-3)Gal(b1-3)GlcNAc
# Method in brief: as §1
# [26] = target: Neu5Ac(a2-3)Gal(b1-3)GlcNAc(b1-2)Man
# Method in brief: as §1
# [27] = target: Neu5Ac(a2-3)Gal(b1-3)GlcNAc(b1-2)Man(a1-3)[GlcNAc(b1-4)][Neu5Ac(a2-3)Gal(b1-3)GlcNAc(b1-2)Man(a1-6)]Man(b1-4)GlcNAc(b1-4)GlcNAc
# Method in brief: as §1
# [28] = target: Neu5Ac(a2-3)Gal(b1-3)GlcNAc(b1-2)Man(a1-3)[Neu5Ac(a2-3)Gal(b1-3)GlcNAc(b1-2)Man(a1-6)]Man(b1-4)GlcNAc(b1-4)GlcNAc
# Method in brief: as §1
# [29] = target: Neu5Ac(a2-3)Gal(b1-3)GlcNAc(b1-2)[Neu5Ac(a2-3)Gal(b1-3)GlcNAc(b1-4)]Man(a1-6)[Neu5Ac(a2-3)Gal(b1-3)GlcNAc(b1-2)Man(a1-3)]Man(b1-4)GlcNAc(b1-4)GlcNAc
# Method in brief: as §1
# [30] = target: Neu5Ac(a2-3)Gal(b1-3)GlcNAc(b1-3)Gal(b1-3)GlcNAc
# Method in brief: as §1
# [31] = target: Neu5Ac(a2-3)Gal(b1-3)GlcNAc(b1-3)Gal(b1-4)GlcNAc
# Method in brief: as §1
# [32] = target: Neu5Ac(a2-3)Gal(b1-3)GlcNAc(b1-3)GalNAc
# Method in brief: as §1
# [33] = target: Neu5Ac(a2-3)Gal(b1-3)GlcNAc(b1-6)GalNAc
# Method in brief: as §1
binder,measurement,setting,value
LecB PA7 (Pseudomonas aeruginosa) (protein) MATQGVFTLPANTRFGVTAFANSSATQTVKVLVNNETAATFTGQSTNNAVIGSQVLNSGGGGKVQIQVSVNGRSSDLVSAQVILANELNVALVGSEDSTDNDYNDAVVVINWPLG,glycan array binding signal (z-score),[1],-0.497
same,glycan array binding signal (z-score),[2],-0.516
same,glycan array binding signal (z-score),[3],-0.448
same,glycan array binding signal (z-score),GlcNAc(b1-6)GalNAc,-0.504
same,glycan array binding signal (z-score),[4],-0.504
same,glycan array binding signal (z-score),Kdn(a2-3)Gal(b1-3)GalNAc,-0.157
same,glycan array binding signal (z-score),Kdn(a2-3)Gal(b1-3)GlcNAc,-0.511
same,glycan array binding signal (z-score),Kdn(a2-3)Gal(b1-4)Glc,-0.485
same,glycan array binding signal (z-score),Kdn(a2-3)Gal(b1-4)GlcNAc,-0.509
same,glycan array binding signal (z-score),[5],-0.183
same,glycan array binding signal (z-score),Kdn(a2-6)Gal(b1-4)GlcNAc,-0.503
same,glycan array binding signal (z-score),[6],1.01
same,glycan array binding signal (z-score),[7],2.29
same,glycan array binding signal (z-score),Man(a1-2)Man(a1-3)Man,0.668
same,glycan array binding signal (z-score),[8],1.53
same,glycan array binding signal (z-score),[9],3.2
same,glycan array binding signal (z-score),[10],-0.423
same,glycan array binding signal (z-score),[11],2.02
same,glycan array binding signal (z-score),[12],2.12
same,glycan array binding signal (z-score),[13],2.22
same,glycan array binding signal (z-score),Man(a1-3)[Man(a1-6)]Man,2.23
same,glycan array binding signal (z-score),[14],2.3
same,glycan array binding signal (z-score),[15],-0.31
same,glycan array binding signal (z-score),[16],1.12
same,glycan array binding signal (z-score),[17],2.08
same,glycan array binding signal (z-score),[18],2.24
same,glycan array binding signal (z-score),Man(a1-6)Man,-0.228
same,glycan array binding signal (z-score),Man(b1-4)GlcNAc,-0.416
same,glycan array binding signal (z-score),MurNAc(b1-4)GlcNAc,-0.514
same,glycan array binding signal (z-score),Neu5Ac(a2-3)Gal,-0.509
same,glycan array binding signal (z-score),[19],-0.379
same,glycan array binding signal (z-score),[20],-0.501
same,glycan array binding signal (z-score),[21],-0.42
same,glycan array binding signal (z-score),[22],-0.488
same,glycan array binding signal (z-score),[23],-0.491
same,glycan array binding signal (z-score),[24],-0.517
same,glycan array binding signal (z-score),[25],-0.489
same,glycan array binding signal (z-score),[26],-0.501
same,glycan array binding signal (z-score),[27],-0.348
same,glycan array binding signal (z-score),[28],-0.472
same,glycan array binding signal (z-score),[29],-0.19
same,glycan array binding signal (z-score),[30],-0.512
same,glycan array binding signal (z-score),[31],-0.506
same,glycan array binding signal (z-score),[32],-0.508
same,glycan array binding signal (z-score),[33],-0.507

# From the supplement of paper PMC8728848
